Assay results taken from paper PMC4336329 (PLoS ONE, 2015).
About 14,000 (4.5%) of roughly 310,000 compounds showed an effect of 50% or more. The effect is printed as a negative number. This is one part of the list.

Target: human ether-à-go-go-related gene (hERG) potassium channel (human, UniProt Q12809)
Assay: primary screen, population patch clamp on CHO cells stably expressing hERG
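Further: peak tail current of the secondary pulse compared with the same well before compound.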

Chain of human ether-à-go-go-related gene (hERG) potassium channel (Q12809 whole entry, looked up): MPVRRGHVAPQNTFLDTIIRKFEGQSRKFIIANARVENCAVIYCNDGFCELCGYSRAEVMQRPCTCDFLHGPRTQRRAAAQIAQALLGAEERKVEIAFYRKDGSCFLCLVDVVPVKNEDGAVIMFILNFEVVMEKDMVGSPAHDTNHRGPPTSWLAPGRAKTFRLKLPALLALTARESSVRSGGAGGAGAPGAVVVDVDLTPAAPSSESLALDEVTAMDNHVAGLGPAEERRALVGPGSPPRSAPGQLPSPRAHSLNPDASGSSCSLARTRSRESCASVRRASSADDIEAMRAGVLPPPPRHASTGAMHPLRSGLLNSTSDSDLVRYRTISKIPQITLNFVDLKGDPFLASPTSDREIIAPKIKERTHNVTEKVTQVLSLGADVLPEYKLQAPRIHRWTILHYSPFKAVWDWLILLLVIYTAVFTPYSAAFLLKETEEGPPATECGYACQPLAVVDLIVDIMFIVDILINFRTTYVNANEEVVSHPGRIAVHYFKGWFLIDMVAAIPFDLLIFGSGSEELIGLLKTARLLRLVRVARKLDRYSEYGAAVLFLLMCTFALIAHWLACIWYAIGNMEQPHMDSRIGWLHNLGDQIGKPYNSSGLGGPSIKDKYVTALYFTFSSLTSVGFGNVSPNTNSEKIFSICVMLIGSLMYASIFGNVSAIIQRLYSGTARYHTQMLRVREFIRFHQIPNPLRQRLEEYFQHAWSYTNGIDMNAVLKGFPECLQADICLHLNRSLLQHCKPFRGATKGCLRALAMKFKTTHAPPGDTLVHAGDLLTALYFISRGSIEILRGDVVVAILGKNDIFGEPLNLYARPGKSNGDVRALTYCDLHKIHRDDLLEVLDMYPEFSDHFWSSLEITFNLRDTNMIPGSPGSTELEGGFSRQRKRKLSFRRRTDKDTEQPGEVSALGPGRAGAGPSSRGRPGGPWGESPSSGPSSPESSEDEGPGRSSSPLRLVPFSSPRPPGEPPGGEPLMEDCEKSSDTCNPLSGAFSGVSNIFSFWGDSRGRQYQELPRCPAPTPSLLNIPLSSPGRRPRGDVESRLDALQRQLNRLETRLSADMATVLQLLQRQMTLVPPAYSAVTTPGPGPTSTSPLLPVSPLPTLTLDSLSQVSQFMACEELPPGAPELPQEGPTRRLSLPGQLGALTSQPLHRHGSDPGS

Going from `COC(=O)c1ccc(S(=O)(=O)N2CCc3ccccc3C2)cc1` to `CCc1ccc(S(=O)(=O)n2c(C)nc3ccccc32)cc1`, the “hERG current change (%, negative = inhibition) at 10uM” value falls from 27.7% to 18.9%.

First: COc1ccc(S(=O)(=O)N2CCCCC2)cc1C(=O)N1CCCCCC1
Second: CCN1CCN(c2ccc(S(=O)(=O)N3CCCCC3)cc2NC(=O)Cc2c(F)cccc2Cl)CC1
The “hERG current change (%, negative = inhibition) at 10uM” value of the first is higher: 0.615% for the first, -8.09% for the second.

Compared with `CCCNC(=O)CSc1nnc(-c2ccccc2Br)n1-c1cccc(C(F)(F)F)c1`, `Cc1ccc(-c2nnc(SCC(=O)NCCN3C(=O)CSC3=O)n2C)cc1` is higher in “hERG current change (%, negative = inhibition) at 10uM” value: -28.2% for the first, 1.59% for the second.

Compared with `O=C(CSc1nnc2c(n1)[nH]c1ccccc12)OCc1ccccc1`, `O=S1(=O)N=C(N=Nc2c(O)[nH]c3ccccc23)c2ccccc21` is lower in “hERG current change (%, negative = inhibition) at 10uM” value: 16.5% for the first, -37.1% for the second.

Compared with `CCOC(=O)c1[nH]cnc1C(=O)Nc1ccccc1C`, `CCOc1ccccc1NC(=O)NNC(=O)c1ccc2ccccc2c1` is higher in “hERG current change (%, negative = inhibition) at 10uM” value: -1.39% for the first, 19.1% for the second.

First: Cc1onc(-c2ccccc2)c1C(=O)OCC(=O)N1CCC(C)CC1
Second: CCOC(=O)c1cnc(-c2ccccc2)nc1N1CCOCC1
The “hERG current change (%, negative = inhibition) at 10uM” value of the first is lower: -7.23% for the first, 5.56% for the second.

Compared with `O=C(NCc1cn2ccsc2n1)c1cccc(C(F)(F)F)c1`, `O=c1cc(COn2nnc3ccc(C(F)(F)F)cc32)nc2sccn12` is higher in “hERG current change (%, negative = inhibition) at 10uM” value: 11.8% for the first, 12.9% for the second.

First: CN(C)C(CNC(=O)C1CCN(C(=O)/C=C/c2ccccc2)CC1)c1ccccc1 (stereo not drawn)
Second: CC(=O)NC(CC(=O)N1CCCC1)c1ccccc1 (stereo not drawn)
The “hERG current change (%, negative = inhibition) at 10uM” value of the first is lower: 3.01% for the first, 15.1% for the second.

Compared with `Cc1cccc(-c2nc3c(s2)CCc2onc(-c4ccc(Br)cc4)c2-3)c1`, `COc1cccc2cc(S(=O)(=O)c3ccc(C)cc3)/c(=N/NS(=O)(=O)c3ccc(C)cc3)oc12` is lower in “hERG current change (%, negative = inhibition) at 10uM” value: 15.1% for the first, -25.7% for the second.

First: COc1ccc(/C=C2/SC(=O)N(CC(=O)NCCC(C)C)C2=O)cc1OC
Second: CCOC(=O)CN1CCc2c(C)nc3c(-c4ccc(OC)c(OC)c4)cnn3c21
The “hERG current change (%, negative = inhibition) at 10uM” value of the first is higher: 9.04% for the first, -11.1% for the second.

Compared with `Nc1[nH+]c(-c2ccc([N+](=O)[O-])cc2)cs1.[Br-]`, `CCC1CCC(c2nnc(-c3ccc([N+](=O)[O-])cc3)o2)CC1` (stereo not drawn) is lower in “hERG current change (%, negative = inhibition) at 10uM” value: 14.1% for the first, -14.6% for the second.

First: O=C(Cc1ccccc1)N/N=C/c1cccs1
Second: COc1ccc(C(C)NC(=O)Cc2cccs2)cc1 (stereo not drawn)
The “hERG current change (%, negative = inhibition) at 10uM” value of the first is higher: 15.6% for the first, 10.3% for the second.

Going from `CCc1ccc(CN2CCC(n3nccc3NC(=O)Cc3ccccc3)CC2)o1` to `Cc1ccccc1C(=O)Nc1ccnn1C1CCN(Cc2ccc(CO)o2)CC1`, the “hERG current change (%, negative = inhibition) at 10uM” value rises from -29.6% to -1.16%.

Compared with `O=C(CN(Cc1ccccc1Cl)C(=O)c1ccc(CN2CCOCC2)o1)NCc1ccccc1`, `CCc1cccc(C)c1NC(=O)C1CCCN1C(=O)NCc1ccccc1` (stereo not drawn) is higher in “hERG current change (%, negative = inhibition) at 10uM” value: -18.7% for the first, 18.4% for the second.

Going from `CC12CN3CC(C)(CN(C1)C3c1ccc3c(c1)OCO3)C2` (stereo not drawn) to `O=C(CCc1ccc(S(=O)(=O)NCCc2ccccc2)cc1)NCc1ccc2c(c1)OCO2`, the “hERG current change (%, negative = inhibition) at 10uM” value falls from 4.87% to -6.25%.

Going from `Cc1ccc(C)c(NC(=O)CN(C)C(=O)c2ccccc2OCc2c(C)noc2C)c1` to `CCc1ccccc1NC(=O)CN(C)C(=O)Cn1cnc2ccc(Cl)cc2c1=O`, the “hERG current change (%, negative = inhibition) at 10uM” value rises from -38% to -13.8%.

First: O=C(Nc1ccccc1F)N1CCCC1c1cccnc1 (stereo not drawn)
Second: O=C(CN1CCN(c2ccc([N+](=O)[O-])cc2)CC1)Nc1ccccn1
The “hERG current change (%, negative = inhibition) at 10uM” value of the first is higher: 8.27% for the first, -77.9% for the second.

Going from `CSc1ccc(CNCc2ccco2)cc1.Cl` to `COC(=O)Cc1ccc(NC(=S)Nc2ccccn2)cc1`, the “hERG current change (%, negative = inhibition) at 10uM” value rises from -4.78% to 8.71%.

First: Cc1ccc(C)c(C(=O)COC(=O)CN2C(=O)C3C4C=CC(C4)C3C2=O)c1 (stereo not drawn)
Second: COc1ccccc1CNC(=O)COC(=O)C1CCN(S(=O)(=O)c2ccc(C)c(C)c2)CC1
The “hERG current change (%, negative = inhibition) at 10uM” value of the first is higher: 2.01% for the first, -9.44% for the second.

Compared with `COc1ccc2c(CSc3nc4nc(C)cc(C)n4n3)cc(=O)oc2c1`, `Cc1cc(C)c2c(=O)[nH]c(SCC(=O)Nc3ccc(N(C)C)cc3)nc2n1` is higher in “hERG current change (%, negative = inhibition) at 10uM” value: -19% for the first, -2.77% for the second.

Compared with `Cc1oc(-c2ccccc2F)nc1CS(=O)CC(=O)NC1CCCC1` (stereo not drawn), `CC(=O)c1cccc(N(C(=O)c2ccco2)C(C(=O)NC2CCCC2)c2ccccc2F)c1` (stereo not drawn) is higher in “hERG current change (%, negative = inhibition) at 10uM” value: -6.26% for the first, -2.37% for the second.

Compared with `C=CCn1c(-c2ccc(=O)n(Cc3ccccc3)c2)n[nH]c1=S`, `Cc1c(N=Cc2nc3ccccc3[nH]2)c(=O)n(-c2ccccc2)n1C` is lower in “hERG current change (%, negative = inhibition) at 10uM” value: 12.3% for the first, 5.52% for the second.

Compared with `CC1(C(=O)NNC(=O)c2ccc(=O)oc2)CC1Br` (stereo not drawn), `Cc1ccc(NC(=O)N2CCN(C(=O)C3CCCO3)CC2)cc1` (stereo not drawn) is higher in “hERG current change (%, negative = inhibition) at 10uM” value: 8.15% for the first, 9.64% for the second.

Compared with `Cl.NCCc1nnc(SCc2c(F)cccc2Cl)o1`, `Cn1c(SCCOc2ccccc2Cl)nnc1-c1cccs1` is lower in “hERG current change (%, negative = inhibition) at 10uM” value: 10.3% for the first, -35% for the second.

First: Cc1ccc(C(=O)OCC(=O)NCCc2ccccc2)cc1S(=O)(=O)N1CCOCC1
Second: COc1ccc(NC(=O)CNS(=O)(=O)c2ccccc2)cc1Cl
The “hERG current change (%, negative = inhibition) at 10uM” value of the first is lower: -17.2% for the first, 4.28% for the second.

Compared with `Cc1cc(C)cc(NC(=O)c2sc3nc4n(c(=O)c3c2C)CCC4)c1`, `CCCn1c(SCC(=O)Nc2ccc3c(c2)CCC3)n[nH]c1=O` is higher in “hERG current change (%, negative = inhibition) at 10uM” value: -22.4% for the first, 2.63% for the second.

Compared with `Cc1cc(C)c2c(CC(=O)O)coc2c1`, `Cc1ccc(Nc2ccc(C(=O)O)cc2N)cc1` is lower in “hERG current change (%, negative = inhibition) at 10uM” value: 6.6% for the first, 2.73% for the second.

Compared with `CS(=O)(=O)N1CCC(C(=O)NCc2ccc(Cl)cc2)CC1`, `O=C(NC1CCCC1)C(c1ccc(Cl)cc1)N1CCOCC1` (stereo not drawn) is higher in “hERG current change (%, negative = inhibition) at 10uM” value: -5.91% for the first, -2.2% for the second.

Going from `COc1ccc(-n2cnc3ccccc32)cc1` to `COc1cccc(Nc2nc3ccccc3c(=O)[nH]2)c1`, the “hERG current change (%, negative = inhibition) at 10uM” value falls from 4.01% to 1.69%.

Compared with `CCCCCN(C(=O)NC(=O)Nc1ccccc1OC)S(C)(=O)=O`, `COc1ccccc1OCCC(=O)O` is higher in “hERG current change (%, negative = inhibition) at 10uM” value: 8.76% for the first, 17.8% for the second.

Compared with `Cc1ccc(/C=C/C(=O)Nc2nc3ccccc3[nH]2)cc1`, `COc1cccc(C(=O)NNS(=O)(=O)c2ccc(C)cc2)c1` is higher in “hERG current change (%, negative = inhibition) at 10uM” value: -8.89% for the first, 22.4% for the second.

Compared with `C[C@@]12C(=O)Nc3ccc(Cl)cc3C(=O)N1[C@H]1c3ccccc3OC[C@@H]1[C@@H]2c1ccccc1`, `NC(=S)N/N=C\c1c(OCc2ccccc2Cl)ccc2ccccc12` is lower in “hERG current change (%, negative = inhibition) at 10uM” value: 24.8% for the first, -2.61% for the second.

Going from `COc1ccc(CN(C)CC(O)COc2ccc(C(=O)c3ccccc3)cc2)c(OC)c1OC` (stereo not drawn) to `COc1ccc(OC)c(C(=O)NC(CC(N)=O)c2ccc(N3CCC(Cc4ccccc4)CC3)c([N+](=O)[O-])c2)c1` (stereo not drawn), the “hERG current change (%, negative = inhibition) at 10uM” value rises from -63.7% to -5.07%.

First: COc1cc(NC(=O)CN2CCN(C(=O)C3CCCO3)CC2)c(OC)cc1Cl (stereo not drawn)
Second: COc1cc(S(=O)(=O)N2CCN(C)CC2)c(OC)cc1Cl
The “hERG current change (%, negative = inhibition) at 10uM” value of the first is lower: -12.5% for the first, 13.2% for the second.

Compared with `COc1cccc(CN2CCN(Cc3cccc(Br)c3)CC2)c1OC.O=C(O)C(=O)O`, `COc1ccccc1C1CCN(Cc2ccccc2Cl)CC1` is higher in “hERG current change (%, negative = inhibition) at 10uM” value: -21.2% for the first, -3.3% for the second.

Going from `CCCC1=C(C(=O)OCC)C(c2cccs2)C(C#N)=C(N)O1` (stereo not drawn) to `COCCNC(=O)/C(C#N)=C1\N=C(N)c2ccccc21`, the “hERG current change (%, negative = inhibition) at 10uM” value falls from 0.909% to -0.413%.

Compared with `CNC(=S)N1CCN(c2ccc(OC)cc2)CC1`, `COc1ccc2cc([C@@H](C)C(=O)[O-])ccc2c1.[Na+]` is higher in “hERG current change (%, negative = inhibition) at 10uM” value: -6.28% for the first, -2.41% for the second.

Compared with `CCC1(C)N([O-])C(C)=C(c2ccccc2)[N+]1=O` (stereo not drawn), `Cc1c(NC(=S)NC(=O)CC(C)C)c(=O)n(-c2ccccc2)n1C` is lower in “hERG current change (%, negative = inhibition) at 10uM” value: 9.85% for the first, -6.24% for the second.

First: Cc1noc(NS(=O)(=O)c2ccc(NC(=O)C(F)(F)F)cc2)c1C
Second: Cc1ccc(NC(=O)CCNS(=O)(=O)c2ccc3[nH]c(=O)oc3c2)cc1N(C)C
The “hERG current change (%, negative = inhibition) at 10uM” value of the first is higher: 25.4% for the first, 14.4% for the second.

Going from `Cc1cc(CN(C)Cc2c(C(=O)N3CCCCCCC3)nc3ccc(Cl)cn23)n[nH]1` to `O=C(c1ccc(COCC(F)(F)F)o1)N1CCCC1`, the “hERG current change (%, negative = inhibition) at 10uM” value rises from -12.3% to 28.6%.

Going from `O=C(Nc1nnc(C2CCCCC2)s1)c1ccco1` to `CSc1nsc(SCC(=O)NC2CCCCC2)n1`, the “hERG current change (%, negative = inhibition) at 10uM” value falls from 8.41% to 3.72%.

Compared with `O=C(Nc1ccccc1C(=O)Nc1nnc(C(F)(F)F)s1)c1ccccc1Cl`, `COC(=O)C(COC(=O)c1c(F)cccc1F)NC(=O)c1c(F)cccc1F` (stereo not drawn) is lower in “hERG current change (%, negative = inhibition) at 10uM” value: 18.3% for the first, 18.2% for the second.

Going from `Cn1ncc(Cl)c1C(=O)NCc1cc(C(C)(C)C)n[nH]1` to `COc1ccc(-n2ccc(=O)c(C(=O)O)n2)c(OC)c1`, the “hERG current change (%, negative = inhibition) at 10uM” value rises from 11.5% to 14.8%.

Going from `C[C@H]1CCC[C@H](O)CCCCCc2cc(O)cc(O)c2C(=O)O1` to `CC1CC(C)CN(CC(O)COc2ccc3c(c2)CCC3)C1.Cl` (stereo not drawn), the “hERG current change (%, negative = inhibition) at 10uM” value falls from -51% to -53.2%.

Compared with `CCOc1ccccc1C(=O)NC1CC2CCCC(C1)N2Cc1nnnn1Cc1ccco1` (stereo not drawn), `NC(=O)CC(NC(=O)Cc1cccc2ccccc12)c1ccc(N2CCN(c3ccccc3)CC2)c([N+](=O)[O-])c1` (stereo not drawn) is higher in “hERG current change (%, negative = inhibition) at 10uM” value: 8.17% for the first, 18.7% for the second.
